# From patent US9828389B2, “Tetrazolinone compounds and their use as pesticides” (SUMITOMO CHEMICAL COMPANY, LIMITED, priority 2012, dated 2017)
# System: common house mosquito (Culex pipiens pallens)
# Assay: whole plant or invertebrate
# Conditions: 192 h, read-out: mortality of insects
# Protocol: The above-mentioned drug solutions 0.7 mL were added to an ion-exchange water 100 mL so that the active ingredient concentration was set to 3.5 ppm. Twenty (20) last instar larvae of common house mosquito (Culex pipiens pallens) were released into the dilutions and after 8 day, the number of the dead insects was counted.
# The mortality of insects was calculated by the following equation. Mortality of insects (%)=(Number of dead insects/Number of tested insects)×100
row,SMILES,mortality at 3.5 ppm
1,"Cc1cc(C)n(-c2ccc(OCc3c(Cl)cccc3-n3nnn(C)c3=O)c(Cl)c2)n1 [Present compound 9, 1-{3-chloro-2-[2-chloro-4-(3,5-dimethyl-pyrazol-1-yl)-phenoxymethyl]-phenyl}-4-methyl-1,4-dihydrotetrazole-5-one]",100%
2,"Cc1cc(-c2nn(C)c(Cl)c2C)ccc1OCc1c(-n2nnn(C)c2=O)cccc1C(F)(F)F [Present compound 209, 1-{2-[2-methyl-4-(5-chloro-1,4-dimethyl-1H-pyrazol-3-yl)-phenoxymethyl]-3-trifluoromethyl-phenyl}-4-methyl-, 4-dihydrotetrazole-5-one]",100%
3,"CCc1cccc(-n2nnn(C)c2=O)c1COc1cc(C)c(-n2ccc(C)n2)cc1C [Present compound 146, 1-{3-ethyl-2-[2,5-dimethyl-4-(3-methyl-pyrazol-1-yl)-phenoxymethyl]-phenyl}-4-methyl-1,4-dihydrotetrazole-5-one]",100%

# System: cabbage moth (Plutella xylostella)
# Assay: whole plant or invertebrate
# Conditions: 120 h, read-out: mortality of insects
# Protocol: Cabbage (green ball) was planted in a polyethylene cup and was grown until the third true leaf or the fourth true leaf was developed. To the cabbage was spread the above-mentioned testing dilutions in a ratio of 20 mL/cup. After the drug dilutions were dried, to a polyethylene cup (diameter 5.5 cm) covered with a filter paper on the bottom, the cabbage cut out from the root was installed and five heads of cabbage moth (Plutella xylostella) at the three instar larval stages were released into the cup and the cup was covered with the lid. The cup was held at 25° C. and after 5 days, the number of the surviving insects was counted and the mortality of insects was calculated by the following equation. Mortality of insects (%)=(Number of dead insects/Number of tested insects)×100
row,SMILES,mortality at 500 ppm
1,"CCc1cccc(-n2nnn(C)c2=O)c1COc1ccc(-n2nc(C)cc2C)cc1C [Present compound 50, 1-{3-ethyl-2-[2-methyl-4-(3,5-dimethyl-pyrazol-1-yl)-phenoxymethyl]-phenyl}-4-methyl-1,4-dihydrotetrazole-5-one]",80%
2,"CCn1ccc(-c2ccc(OCc3c(C)cccc3-n3nnn(C)c3=O)c(C)c2)n1 [Present compound 44, 1-{3-methyl-2-[2-methyl-4-(1-ethyl-1H-3-pyrazol-3-yl)-phenoxymethyl]-phenyl}-4-methyl-1,4-dihydrotetrazole-5-one]",80%
3,"COc1cccc(-n2nnn(C)c2=O)c1COc1ccc(-c2cc(C)n(C)n2)cc1C [Present compound 90, 1-{3-methoxy-2-[2-methyl-4-(1,5-dimethyl-1H-pyrazol-3-yl)-phenoxymethyl]-phenyl}-4-methyl-1,4-dihydrotetrazole-5-one]",80%
4,"Cc1cc(C)n(-c2ccc(OCc3c(Cl)cccc3-n3nnn(C)c3=O)c(Cl)c2)n1 [Present compound 9, 1-{3-chloro-2-[2-chloro-4-(3,5-dimethyl-pyrazol-1-yl)-phenoxymethyl]-phenyl}-4-methyl-1,4-dihydrotetrazole-5-one]",80%
5,"C#CCn1cc(C)c(-c2ccc(OCc3c(OC)cccc3-n3nnn(C)c3=O)c(C)c2)n1 [Present compound 143, 1-(2-{4-[4-methyl-1-(2-propynyl)-1H-pyrazol-3-yl)-2-methyl-phenoxymethyl}-3-methoxy-phenyl)-4-methyl-1,4-dihydrotetrazole-5-one]",80%
6,"Cc1cnn(-c2ccc(OCc3c(Cl)cccc3-n3nnn(C)c3=O)c(Cl)c2)c1 [Present compound 16, 1-{3-chloro-2-[2-chloro-4-(4-methyl-pyrazol-1-yl)-phenoxymethyl]-phenyl}-4-methyl-1,4-dihydrotetrazole-5-one]",80%
7,"Cc1ccn(-c2cc(C)c(OCc3c(C)cccc3-n3nnn(C)c3=O)c(C)c2)n1 [Present compound 31, 1-{3-methyl-2-[2,6-dimethyl-4-(3-methyl-pyrazol-1-yl)-phenoxymethyl]-phenyl}-4-methyl-1,4-dihydrotetrazole-5-one]",80%
8,"Cc1ccn(-c2ccc(OCc3c(Cl)cccc3-n3nnn(C)c3=O)c(C)c2)n1 [Present compound 13, 1-{3-chloro-2-[2-methyl-4-(3-methyl-pyrazol-1-yl)-phenoxymethyl]-phenyl}-4-methyl-1,4-dihydrotetrazole-5-one]",80%
9,"CCOc1cccc(-n2nnn(C)c2=O)c1COc1ccc(-c2nn(C)c(Cl)c2C)cc1C [Present compound 210, 1-{3-ethoxy-2-[2-methyl-4-(5-chloro-1,4-dimethyl-1H-pyrazol-3-yl)-phenoxymethyl]-phenyl}-4-methyl-1,4-dihydrotetrazole-5-one]",80%
